# Results reported in PMC4336329 (PLoS ONE, 2015).
# In all, about 310,000 compounds went through this assay and about 14,000 (4.5%) showed an effect of 50% or more. Effects have a minus sign here. The list shows a part of the results.
# Target: human ether-à-go-go-related gene (hERG) potassium channel (human, UniProt Q12809)
# Assay: primary screen, population patch clamp on CHO cells stably expressing hERG
# 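Further: peak tail current of the secondary pulse compared with the same well before compound.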
# Sequence of human ether-à-go-go-related gene (hERG) potassium channel (Q12809 whole entry, looked up): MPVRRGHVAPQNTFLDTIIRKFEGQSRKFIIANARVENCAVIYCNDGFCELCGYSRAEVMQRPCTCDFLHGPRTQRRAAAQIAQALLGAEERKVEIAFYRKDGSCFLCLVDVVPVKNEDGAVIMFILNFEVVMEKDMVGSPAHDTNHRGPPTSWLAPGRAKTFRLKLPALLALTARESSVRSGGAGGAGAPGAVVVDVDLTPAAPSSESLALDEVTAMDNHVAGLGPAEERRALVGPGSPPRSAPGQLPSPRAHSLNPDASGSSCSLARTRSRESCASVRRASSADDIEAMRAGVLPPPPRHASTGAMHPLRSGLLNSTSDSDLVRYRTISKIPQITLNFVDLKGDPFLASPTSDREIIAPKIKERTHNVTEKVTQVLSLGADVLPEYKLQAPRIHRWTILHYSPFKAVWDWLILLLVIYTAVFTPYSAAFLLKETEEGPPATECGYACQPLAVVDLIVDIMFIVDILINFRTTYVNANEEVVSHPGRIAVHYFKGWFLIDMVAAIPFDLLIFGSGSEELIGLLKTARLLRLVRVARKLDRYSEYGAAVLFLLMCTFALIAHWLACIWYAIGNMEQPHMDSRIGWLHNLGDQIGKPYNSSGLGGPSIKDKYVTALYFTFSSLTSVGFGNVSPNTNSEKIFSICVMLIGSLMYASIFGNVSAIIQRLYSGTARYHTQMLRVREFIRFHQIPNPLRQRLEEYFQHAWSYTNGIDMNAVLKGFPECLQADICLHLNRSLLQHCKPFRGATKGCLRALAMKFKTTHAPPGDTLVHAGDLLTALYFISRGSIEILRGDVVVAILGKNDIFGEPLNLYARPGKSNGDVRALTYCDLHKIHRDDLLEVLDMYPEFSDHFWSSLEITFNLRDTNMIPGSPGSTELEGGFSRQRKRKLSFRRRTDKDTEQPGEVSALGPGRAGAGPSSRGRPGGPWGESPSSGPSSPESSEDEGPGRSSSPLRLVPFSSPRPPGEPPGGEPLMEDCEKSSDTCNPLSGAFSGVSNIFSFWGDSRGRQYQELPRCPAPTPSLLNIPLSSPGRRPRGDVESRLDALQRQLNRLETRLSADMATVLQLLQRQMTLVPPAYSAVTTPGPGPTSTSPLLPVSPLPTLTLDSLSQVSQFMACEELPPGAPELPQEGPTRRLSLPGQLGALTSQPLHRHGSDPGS
row,SMILES,"hERG current change (%, negative = inhibition) at 10uM [%]"
1,Cc1cccc(-n2nnc3c(=O)n(CC(=O)Nc4cc(C)on4)cnc32)c1,13.8
2,O=C(NC(=S)NCC1CCCO1)c1ccccc1F (centres unmarked),12.6
3,NC(=O)CSc1nnc(NC(=O)c2ccc(Br)o2)s1,22.2
4,COC(=O)c1cc(S(=O)(=O)N2CCC(c3ccccc3)C2)c[nH]1 (centres unmarked),-26.1
5,COc1ccc(NC(=O)c2ccc(Br)o2)cc1,-1.05
6,Cc1ccc(S(=O)(=O)NN2C(=O)c3ccccc3NC2c2ccccn2)cc1 (centres unmarked),1.49
7,CCCN(C1CCS(=O)(=O)C1)S(=O)(=O)c1ccc2ccccc2c1 (centres unmarked),-29
8,CC(C)(C)c1cc(-c2ccccc2)no1,8.56
9,COc1ccc(CC(=O)Nc2ccc(S(=O)(=O)N3CCC(C)CC3)cc2)c(OC)c1,7.15
10,COC(=O)c1ccc(NC(=O)Cn2nc(C)cc2C)cc1,18.8
11,CCc1ccc(NC(=O)CSc2nncn2-c2cccnc2)cc1,-3.57
12,CCCCn1c(N)c(N(CCC(C)C)C(=O)C2CCN(C(=O)c3ccccc3C)CC2)c(=O)[nH]c1=O,3.65
13,CC(=O)Nc1ccc(CN2CCN(c3cccc(C(F)(F)F)c3)CC2)cc1,-38
14,O=C(CCCc1ccccc1)Nc1cccnc1,-13.7
15,C/C(=N\Nc1nc(-c2ccccc2)cs1)c1cccs1,11.9
16,CC(C)CCNC(=O)c1ccc2c(c1)ncn2C1CCCCC1,-42.8
17,O=C(Nc1c(F)cccc1F)c1ccc(-n2cncn2)nc1,7.84
18,O=S(=O)(NCc1cccnc1)c1ccc(Cl)c(Cl)c1Cl,-20.8
19,O=C(O)/C=C/c1ccc(Oc2ncccn2)cc1,-12
20,Cc1cc(OC(C)C(=O)NCCCN2CCOCC2)c2c(C)cc(=O)oc2c1 (centres unmarked),2.25
21,O=C1Nc2c(c(=O)[nH]c(=O)n2-c2ccccc2F)C(C(F)(F)F)(C(F)(F)F)N1,22.5
22,O=C(N/N=C/c1cc([N+](=O)[O-])ccc1O)c1cccc2ccccc12,20.6

row,SMILES,"hERG current change (%, negative = inhibition) at 10uM [%]"
1,N#CC1(NC(=O)COC(=O)c2cc([N+](=O)[O-])ccc2N2CCOCC2)CCCCC1,-55.3
2,COc1ccc(-c2noc(CSc3ccccc3)n2)cc1OC,-18.6
3,CCCCN(C(=O)COC(=O)c1nc2nc(C)cc(C)n2n1)C1CCS(=O)(=O)C1 (centres unmarked),0.242
4,COc1ccc(S(=O)(=O)NCc2ccc(C)cc2)cc1,-4.83
5,Cc1nc(NC(=O)c2ccccc2)sc1-c1csc(Nc2ccc(F)cc2)n1,19
6,COc1ccc(OC)c(NC(=O)C(=O)/C=C(\O)c2cc(OC)ccc2OC)c1,-19
7,CCCOC(=O)c1ccc2c(c1)C(=O)N(c1ccccc1)C2=O,6.08
8,Cc1cc(CN2CCCC(N3CCc4ccccc4C3)C2)cc(C)c1O (centres unmarked),-35.9
9,O=C(COc1ccc2ccc(=O)oc2c1)NC(Cc1ccc(Cl)cc1)C(=O)O (centres unmarked),10.3
10,COc1cccc(CNC(=O)C2CCN(c3nn4c(=O)cc(C)nc4s3)CC2)c1,4.82
11,CN1CCN(c2ccc(NC(=O)c3ccc4c(c3)OCCO4)cc2)CC1,-35.6
12,Cc1ccc(CNC(=O)C23CN(Cc4ccccc4)CC2C(c2ccc([N+](=O)[O-])cc2)=NO3)o1 (centres unmarked),-49.6
13,COc1ccc(NC(=O)c2ccc3c(SCC(=O)O)c4c(nc3c2)CCCC4)c(OC)c1,0.828
14,CC(C)c1ccc(NC(=O)NN2CCOCC2)cc1,3.62
15,CS(=O)(=O)N1CCN(CC(=O)NC2CCCC2)CC1,-11.4
16,Fc1cnc(N2CCOCC2)nc1N1CCOCC1,12.7
17,C/C(=N/OCO/N=C(\C)c1ccccc1F)c1ccccc1F,2.36
18,Cc1ccc2nc(SCC(=O)N3CCC(C)CC3)nc(=O)n2c1,-9.74
19,O=C(NCC(=O)N(c1cccnc1)C(C(=O)NC1CCCC1)c1cccs1)c1ccco1 (centres unmarked),-2.17
20,Cc1ccc(S(=O)(=O)N2CCCCC2)cc1NC(=O)C1CCCO1 (centres unmarked),2.45
21,CCOC(=O)N1CCN(Cc2ccc3ccccc3c2)CC1,10.3
22,Cc1ccc(S(=O)(=O)N2CCN(C(=O)COC(=O)C3(C)CC3(Cl)Cl)CC2)c(C)c1 (centres unmarked),-0.582
